PubChem BioAssay AID485290 (National Center for Advancing Translational Sciences (NCATS), 2010)
The campaign covered roughly 350,000 compounds. About 990 (0.28%) were called active. Inconclusive means that the source gave no clear call. Such entries were picked first, then a sample of the others. Calls come from the whole dose curve; as a rule, active = well fitted inhibition curve with a large enough effect; inconclusive = small, poorly fitted or top-dose-only effect; inactive = no such curve, though single readings can be large or run the other way. A potency beside an inconclusive call is a rough fit, not a confirmed value.

molecular target: Tyrosyl-DNA phosphodiesterase 1 (Homo sapiens) (UniProt Q9NUW8); experiment: qHTS Assay for Inhibitors of Tyrosyl-DNA Phosphodiesterase (TDP1); settings: recombinant TDP1, AlphaScreen DNA substrate cleavage; activity change, negative = inhibition: at 130 µM (top of the series) unless noted; note: nearly all actives have a fitted effect of over 40% in size
UniProt Q9NUW8, sequence (Q9NUW8 whole entry, looked up): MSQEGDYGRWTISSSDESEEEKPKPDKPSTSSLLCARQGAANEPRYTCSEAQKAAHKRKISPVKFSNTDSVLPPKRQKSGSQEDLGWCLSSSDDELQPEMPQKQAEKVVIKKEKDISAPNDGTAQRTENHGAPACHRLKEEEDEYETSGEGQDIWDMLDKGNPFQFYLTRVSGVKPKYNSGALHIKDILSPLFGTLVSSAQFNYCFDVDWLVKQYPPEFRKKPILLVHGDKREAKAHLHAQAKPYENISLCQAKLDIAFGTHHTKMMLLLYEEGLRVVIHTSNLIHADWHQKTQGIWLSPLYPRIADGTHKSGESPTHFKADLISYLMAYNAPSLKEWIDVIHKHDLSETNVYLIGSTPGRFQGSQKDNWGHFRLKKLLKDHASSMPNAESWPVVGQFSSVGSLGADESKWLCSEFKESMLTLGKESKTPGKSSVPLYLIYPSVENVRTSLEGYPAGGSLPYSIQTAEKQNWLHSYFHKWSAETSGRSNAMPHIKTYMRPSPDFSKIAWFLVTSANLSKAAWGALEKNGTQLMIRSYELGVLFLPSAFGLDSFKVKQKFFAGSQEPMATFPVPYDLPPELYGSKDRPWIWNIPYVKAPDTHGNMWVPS
Summary of the method: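 Tdp1 1 nM final; 15 min RT w/ cpd; substrate 15 nM, 5 min; beads 10 ug/ml, 10 min; AlphaScreen read. Neg ctrl: no enzyme.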
% is set by controls: 0 for no effect and ±100 for the full control effect; potency is the fitted concentration of half-maximal effect; tags give direction and shape of the fitted curve.

Potency, inconclusive:
O=c1c(/C=C(\O)c2ccccc2)nc2ccccc2n1-c1ccccc1 11.2 µM [inhibitor, partial curve], Oc1c(Br)cc(/C=N/n2c(-c3ccccc3)n[nH]c2=S)c(Br)c1O 0.447 µM [inhibitor, full curve, poor fit], CCOC(=O)N1CCN(C(=O)C2CCN(Cc3ccc(O)c(OCC)c3)CC2)CC1 15.8 µM [inhibitor, partial curve], Cc1ccc(Cn2c(=N)n(CC(=O)c3ccccc3)c3ccccc32)cc1 89.1 µM [inhibitor, single point], COc1ccc(OC)c(/C=N/NC(=O)C(=O)NCc2cccnc2)c1 44.7 µM [inhibitor, single point], COc1ccccc1NC(=O)c1cc2cc3ccc(OC)c(Cl)c3nc2s1 3.55 µM [inhibitor, full curve, poor fit], COc1cc(/C=N/Nc2nc3ccccc3s2)cc([N+](=O)[O-])c1O 79.4 µM [inhibitor, single point], Brc1ccc(C2Nc3cccc4cccc(c34)N2)o1 0.316 µM [inhibitor, full curve, poor fit], Nc1nnc2c(n1)CCCC2 39.8 µM [inhibitor, single point], O=C(Nc1ccc(S(=O)(=O)Nc2nccs2)cc1)c1ccc(=O)[nH]c1 5.62 µM [inhibitor, full curve, poor fit], Cc1ccc(NS(=O)(=O)c2c(C)nc3sc(C)c(C)n3c2=O)cc1F 5.62 µM [inhibitor, partial curve], CC(=O)c1ccc(NC(=O)CSc2ccc(-c3ccco3)nn2)cc1 79.4 µM [inhibitor, partial curve], C1=CC2CC1CC2CN1CCN(Cc2ccccc2)CC1 (centres undefined) 20 µM [inhibitor, partial curve], COc1ccccc1CCNC(=O)c1ccc2nc[nH]c2c1 25.1 µM [inhibitor, full curve, poor fit], CC1=C(C(=O)OC2CCCCC2)C(c2ccccc2)NC(=O)N1 (centres undefined) 56.2 µM [inhibitor, partial curve], Clc1ccc(-c2nc(N3CCCCC3)nc3ccccc23)cc1 17.8 µM [inhibitor, full curve], COC(=O)c1cc(C)[nH]c2c(C)cc3nc4ccccc4c3c12 14.1 µM [inhibitor, single point], Cc1cc2oc(C(=O)Nc3ccc(S(=O)(=O)Nc4ncccn4)cc3)c(C)c2cc1Cl 44.7 µM [inhibitor, partial curve], O=C(CN1CCCCCC1)NN(Cc1ccccc1)c1ccccc1 12.6 µM [inhibitor, partial curve], O=C(O)c1ccc(COCC(F)(F)C(F)F)o1 56.2 µM [inhibitor, partial curve], CCCc1cc(=O)oc2c(C)c(OCC(=O)Nc3ccccn3)ccc12 56.2 µM [inhibitor, partial curve], Cn1c(=O)c2[nH]c(-c3ccccc3O)nc2n(C)c1=O 5.62 µM [inhibitor, full curve, poor fit], CCOC(=O)c1c(NC(=O)c2cccs2)sc(C)c1CC 12.6 µM [inhibitor, partial curve, poor fit], COCCn1c(SCC(=O)Nc2ccc(C(N)=O)cc2)nc2c([nH]c3ccccc32)c1=O 39.8 µM [inhibitor, partial curve], Cc1nnc(SCC(=O)Nc2ccccc2)c2ccccc12 89.1 µM [inhibitor, single point], CCCCC(=O)NNC(=O)c1c(O)c2ccccc2[nH]c1=O 79.4 µM [inhibitor, single point], CCOC(=O)C(CCCOc1ccccc1C)C(=O)OCC 31.6 µM [inhibitor, partial curve], COc1cc(NC(=O)CCS(=O)(=O)c2nc(-c3cccs3)cc(C(F)(F)F)n2)cc(OC)c1OC 39.8 µM [inhibitor, single point], CN(C)/C=C/C(=O)c1cnc2sccn2c1=O 31.6 µM [inhibitor, partial curve], CCOc1cc(N2CCOCC2)c(OCC)cc1NC(=O)CSc1cccc[n+]1[O-] 39.8 µM [inhibitor, full curve], COc1cccc(NS(=O)(=O)c2ccc3[nH]cc(C(=O)N4CCCCCC4)c(=O)c3c2)c1 50.1 µM [inhibitor, single point], COc1ccc2cnnc(SCC(=O)Nc3ccc(C(=O)O)cc3)c2c1OC 50.1 µM [inhibitor, partial curve], CCSc1nc(-c2ccc(OC)cc2)cc(-c2ccccc2)c1C#N 28.2 µM [inhibitor, partial curve], CC[C@H]1C(c2cccc(Cl)c2)=NN(c2ccccc2)[C@@H]1CO 126 µM [inhibitor, single point], O=C(Cn1nnc(-c2ccc(Cl)cc2)n1)NCc1ccco1 63.1 µM [inhibitor, partial curve, poor fit], O=C(O)c1cc(N=Nc2ccc(-c3ccc(N=Nc4ccc(O)c(C(=O)O)c4)cc3)cc2)ccc1O 8.91 µM [inhibitor, single point], COc1cccc(CNC(=O)c2nnn(CC(=O)Nc3c(C)cccc3C)c2N)c1 0.708 µM [inhibitor, full curve, poor fit], c1ccc(-c2cc3ccccc3nc2N2CCCC2)cc1 28.2 µM [inhibitor, full curve, poor fit]

Potency, inactive:
COc1ccccc1-c1nc(-c2ccc(Br)o2)no1

Potency, active:
Cc1noc(C)c1-c1nc(Nc2ccncc2)c2ccccc2n1 28.2 µM, Cc1ccccc1NC(=O)CN1C(=O)N/C(=C\c2cccn2-c2cccc(C(=O)O)c2)C1=O 1.41 µM, O=C(Nc1ccc2oc(-c3ccncc3)nc2c1)c1ccc(F)cc1 79.4 µM, CCN(C(=O)COC(=O)/C=C/c1ccco1)C1CCCCC1 20 µM, COc1ccc(-c2nnc3ccc(SCC(=O)NCc4ccco4)nn23)cc1 79.4 µM, O=C(NNC(=O)c1ccccc1Br)c1ccc2nc[nH]c2c1 11.2 µM, Cc1nn(-c2ccc(F)cc2)c(Cl)c1/C=N/NC(=O)c1cccs1 79.4 µM, O=C(CSc1nnc(-c2cccc(S(=O)(=O)N3CCCC3)c2)n1-c1ccccc1)Nc1ccc(C(=O)O)cc1 79.4 µM, OC[C@H](S)CS 12.6 µM, O=Cc1ccc2oc3nc4n(c(=O)c3c(=O)c2c1)CCCS4 10 µM, O=c1c2ccccc2nc2ccc(NCc3ccco3)nn12 50.1 µM, O=C(OCc1ccccc1)c1ccccc1O 79.4 µM, O=C(O)/C=C/c1ccc([N+](=O)[O-])o1 31.6 µM

Activity change, negative = inhibition, inactive:
Cc1nc2ccc(C(=O)Nc3cccc([N+](=O)[O-])c3)cc2s1 -9.58%, Cc1cc(C)cc(NC(=O)c2cccc(N3C(=O)C4C5C=CC(C5)C4C3=O)c2)c1 (centres undefined) 2.46%, CCc1ccc(NC(=S)Nn2cnnc2)cc1 2.56%, Cc1nn(-c2ccc(N3CCOCC3)nn2)c(C)c1CCC(=O)Nc1ccc(F)cc1 5.75%, Cc1ccccc1N=C/C=C1/C=C(c2ccccc2)OC(C)(C)O1 -0.724% [at 56.1 µM], COC(=O)c1[nH]c2ccccc2c1NC(=O)CN1CCN(C(=O)c2ccco2)CC1 2.87%, CCn1c(-c2ccccn2)nc2cc(S(=O)(=O)N(C)C)ccc21 -10.1%, CCO[C@H]1OC(C(=O)N2CCN(Cc3ccc4c(c3)OCO4)CC2)=C[C@@H](c2csc3ccccc23)[C@@H]1CCCO 7.69%, Cc1[nH]nc(SCC(=O)Nc2ccc(C#N)cc2)c1[N+](=O)[O-] 3.43%, Cc1ncc(CO)c2c1Oc1nc(-c3ccccc3)nc(SCC(=O)Nc3cccc(C(F)(F)F)c3)c1C2 0%, O=C(NC(NC1CCS(=O)(=O)C1)C(=O)c1cccs1)c1ccccc1 (centres undefined) 0%, CSc1ccccc1OCc1cc(C(=O)N2CCc3[nH]cnc3C2c2ccccn2)no1 (centres undefined) 10.6%, O=C(CSc1nnc(C2CCCCC2)o1)Nc1ccccc1Cl 5.97%, Cc1nn(-c2ccccc2)c(C)c1/C=N/NC(=O)c1cc(-c2cccs2)[nH]n1 5.71%, N#CC1=C(N)NC(=S)C(C(N)=O)C1c1ccc([N+](=O)[O-])cc1 (centres undefined) 10.8%, Cc1c(Cl)cccc1NC(=O)c1cnc2sc(N3CCCC3)nn2c1=O 3.25%, Cn1cc(CNC(=O)c2sc3cccc(Cl)c3c2Cl)cn1 2.5%, O=C(CSc1nnc2ncccn12)Nc1cccc2ccccc12 2.14%, O=C(O)CCC[C@H](O)\C=C/C=C/C=C/[C@H](O)C/C=C\CCCCCO -2.49%, O=C(C1=C[C@H](C2CCCCC2)C[C@H](OCCCCO)O1)N1CCN(Cc2ccccc2)CC1 2.56%, CN(CC(=O)Nc1ccc(Cl)c(C(F)(F)F)c1)C(=O)c1cc(=O)c2ccccc2o1 0.56%, CC1CN(S(=O)(=O)c2cc(C(=O)N(CCc3ccccc3)Cc3ccccc3)ccc2Cl)CC(C)O1 (centres undefined) 1.9%
